According to the supplement of paper PMC10126150:
Values marked as one replicate rest on one cluster of the flow cell; about a third of the high ones do not repeat.

Each sequence was assayed on ATP (assay: switch fluorescence ratio, 500 uM ATP over buffer (Cy3 cluster intensity, sum of 5 cycles each) (fold (ratio)); higher = stronger signal-on switching upon ATP binding; sequences stand for … in TCGTCGGCAGCGTCAGATGTGTATAAGAGACAGTTTTTTTTTTTTTTTTTTTTTTTTT…TC). Conditions: aptamer strand: ATP DNA aptamer (quencher-CACCTGGGGGAGTATTGCGGAGGAAGG + anchor), 100 nM annealed; ATP concentration: 500 uM; one replicate.
How it was run: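 Between each of five buffer/ATP cycles, the flow-cell was stripped with NaOH and re-annealed. Each cycle imaged Cy3-labelled switching-strand clusters, annealed to 100 nM quencher-labelled ATP aptamer on a modified Illumina MiSeq flow-cell, first in selection buffer and then after 15 min with 500 uM ATP at 22 °C. The fluorescence ratio is summed target-cycle over summed buffer-cycle Cy3 intensity per cluster, averaged per switch-domain sequence, with clusters outside 100-1000 RFU excluded.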
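Note: ATP exposure 15 min at 22 °C before imaging.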

Row | Sequence | switch fluorescence ratio
1 | CGGTGAGCCT | 0.997
2 | CGGTGCATTC | 2.29
3 | CGGTGGAGG | 1.01
4 | CGGTGTTCGT | 1.03
5 | CGGTTAACTT | 1.03
6 | CGGTTACATG | 0.977
7 | CGGTTAGGAC | 1
8 | CGGTTATGAA | 1
9 | CGGTTCGGCA | 0.973
10 | CGGTTCTAC | 1.05
11 | CGGTTGAGGA | 0.977
12 | CGGTTGGTTG | 0.987
13 | CGGTTTTCT | 1
14 | CGTAAAAAAG | 1.03
15 | CGTAAATGAC | 1.09
16 | CGTAACCAAG | 1.03
17 | CGTAACGTT | 0.993
18 | CGTAAGGACA | 1
19 | CGTAATATTG | 1.1
20 | CGTACACCC | 1.28
21 | CGTACAGCTT | 1.06
22 | CGTACGTTAG | 1.01
23 | CGTACTAATC | 1.03
24 | CGTACTGATG | 0.992
25 | CGTACTGCCC | 0.963
26 | CGTAGACCCG | 1.03

Row | Sequence | switch fluorescence ratio
27 | CGTAGCGAGG | 1.44
28 | CGTAGCGCGT | 1
29 | CGTAGGCAAT | 1.73
30 | CGTAGGCAGG | 1.04
31 | CGTAGGGATG | 0.944
32 | CGTAGTACCT | 1.12
33 | CGTAGTAGCC | 1.03
34 | CGTAGTATCA | 0.998
35 | CGTAGTCTC | 1.34
36 | CGTAGTTAGC | 1.37
37 | CGTATAATTC | 1.02
38 | CGTATACGAC | 1.15
39 | CGTATATG | 1.05
40 | CGTATCGGTT | 0.939
41 | CGTATCTCCA | 1.07
42 | CGTATGCGGG | 0.988
43 | CGTATGTCGC | 1.05
44 | CGTATTATCA | 1
45 | CGTATTGTAA | 0.975
46 | CGTATTTTGA | 0.969
47 | CGTCAACAAC | 1.34
48 | CGTCAAGGA | 0.996
49 | CGTCAAGGGG | 1.02
50 | CGTCAGAGAA | 0.987
51 | CGTCATGGAG | 0.974
52 | CGTCCAAACT | 1.11

Row | Sequence | switch fluorescence ratio
53 | CGTCCGAATA | 3.95
54 | CGTCCTAGAC | 1.2
55 | CGTCGATGGG | 0.997
56 | CGTCGGATTC | 1.03
57 | CGTCGGCCCA | 0.989
58 | CGTCGGCTGT | 1
59 | CGTCGGTCAT | 0.944
60 | CGTCGGTTGC | 1.05
61 | CGTCGGTTTA | 1.05
62 | CGTCGTGCTG | 0.99
63 | CGTCGTTTAT | 1.03
64 | CGTCTCATAG | 1.03
65 | CGTCTGCCTG | 0.892
66 | CGTCTGTATG | 0.994
67 | CGTCTTTCGT | 1.02
68 | CGTGAAGTAT | 1
69 | CGTGACCTAG | 1.01
70 | CGTGAGAATT | 0.975
71 | CGTGAGATTT | 0.979
72 | CGTGCAAGCA | 1.04
73 | CGTGCCGCTC | 1.05
74 | CGTGCGGTGT | 0.971
75 | CGTGCTATAA | 1.43
76 | CGTGCTGCGC | 1.03
77 | CGTGGAGGTT | 0.982
78 | CGTGGATATA | 1.04

Row | Sequence | switch fluorescence ratio
79 | CGTGGATGAA | 1.02
80 | CGTGGCCACG | 0.968
81 | CGTGGGGCGT | 1.05
82 | CGTGGGGTGC | 1.01
83 | CGTGGGTGGC | 1.01
84 | CGTGGTAAAC | 1.03
85 | CGTGGTAATT | 1.01
86 | CGTGTGCCCT | 1.04
87 | CGTGTGCGAT | 0.981
88 | CGTGTTATTG | 1
89 | CGTGTTCCAT | 0.998
90 | CGTGTTCTTA | 0.998
91 | CGTGTTGCAG | 1.09
92 | CGTTACGCAA | 3.8
93 | CGTTAGAAAT | 1.05
94 | CGTTATGT | 0.992
95 | CGTTATGTCC | 1.03
96 | CGTTCAAGTG | 0.965
97 | CGTTCATTAA | 0.967
98 | CGTTCCGCGG | 1.35
99 | CGTTCGGGGC | 1.09
100 | CGTTCGTCAC | 1.21
101 | CGTTCGTCGC | 1.02
102 | CGTTCGTCT | 1.01
103 | CGTTCTTTCC | 0.965
104 | CGTTGACGTA | 0.985

Row | Sequence | switch fluorescence ratio
105 | CGTTGCAATT | 1.54
106 | CGTTGGAGGT | 0.982
107 | CGTTGTCTTG | 0.974
108 | CGTTGTGT | 0.988
109 | CGTTGTGTA | 0.971
110 | CGTTTAGAGA | 0.941
111 | CGTTTAGCAA | 5.62
112 | CGTTTATAGA | 1.05
113 | CGTTTATGCA | 1.03
114 | CGTTTTCGAG | 0.989
115 | CGTTTTGTTC | 1.01
116 | CTAAAAGGAG | 0.98
117 | CTAAACGGAC | 1.25
118 | CTAAAGAGTC | 1
119 | CTAAATTTCG | 1.06
120 | CTAACATTGG | 1.02
121 | CTAACGAAGC | 1.39
122 | CTAACGATGG | 0.999
123 | CTAAGAATGA | 0.979
124 | CTAAGAGCGG | 0.974
125 | CTAAGCAGAG | 1.09
126 | CTAAGGCTAG | 0.978
127 | CTAAGGTG | 1.5
128 | CTAAGGTGAG | 1.03
129 | CTAAGGTGT | 1.23
130 | CTAAGTAACT | 1.03

Row | Sequence | switch fluorescence ratio
131 | CTAATAGGG | 0.94
132 | CTAATCAAAG | 1.03
133 | CTAATCAGAC | 1.03
134 | CTAATCGTCC | 1.14
135 | CTAATCTCTT | 0.99
136 | CTAATGGGAA | 1.05
137 | CTAATTGGAG | 0.991
138 | CTACAACTGC | 1.07
139 | CTACAGCCGT | 1.11
140 | CTACATAACT | 1.19
141 | CTACATATAT | 1.07
142 | CTACATCGGA | 0.968
143 | CTACCACGAA | 1.06
144 | CTACCTCTGC | 2.42
145 | CTACCTTCTT | 1.3
146 | CTACGCAGCT | 5.95
147 | CTACGGCCTT | 1.08
148 | CTACGGGGCA | 0.986
149 | CTACGTCATA | 2.31
150 | CTACGTCT | 1.11
151 | CTACTAAATT | 0.976
152 | CTACTCAAAA | 1.22
153 | CTACTCATTA | 1.04
154 | CTACTCCCCT | 3.03
155 | CTACTCGGCT | 1.02
156 | CTACTTCGG | 0.963

Row | Sequence | switch fluorescence ratio
157 | CTAGAAGAAG | 0.993
158 | CTAGAAGATC | 0.994
159 | CTAGAATTAA | 0.958
160 | CTAGACAGG | 0.986
161 | CTAGACCAAG | 0.961
162 | CTAGACGGTG | 1.02
163 | CTAGAGATCT | 0.969
164 | CTAGATGTGC | 0.941
165 | CTAGATTAAA | 0.97
166 | CTAGCAGGAT | 1.03
167 | CTAGCAGTAT | 1.31
168 | CTAGCCAGGA | 0.987
169 | CTAGCCATTC | 1.11
170 | CTAGCCTCA | 0.963
171 | CTAGCTATCA | 1.03
172 | CTAGCTGGGA | 1.01
173 | CTAGCTGTTC | 1.05
174 | CTAGCTTGAT | 1
175 | CTAGGAAAGC | 1.01
176 | CTAGGAACAC | 1.07
177 | CTAGGATGTC | 1.07
178 | CTAGGCCTAT | 0.964
179 | CTAGGCGTAT | 0.945
180 | CTAGGGCTCC | 0.981
181 | CTAGGGGA | 1.15
182 | CTAGGTAATC | 1.17

Row | Sequence | switch fluorescence ratio
183 | CTAGGTGGTA | 0.938
184 | CTAGGTGGTG | 1.02
185 | CTAGTAATTA | 1
186 | CTAGTACACT | 1.07
187 | CTAGTAGCAG | 0.959
188 | CTAGTAGGGT | 0.984
189 | CTAGTCACTG | 0.967
190 | CTAGTCCAAC | 1.07
191 | CTAGTGCAAG | 1.03
192 | CTAGTGCGTT | 1.03
193 | CTAGTTTAAT | 0.993
194 | CTAGTTTAC | 1.01
195 | CTAGTTTCG | 1.01
196 | CTATAAGA | 1.01
197 | CTATACAAGA | 1.03
198 | CTATACCGTA | 1.07
199 | CTATAGAGGC | 0.98
200 | CTATATAACA | 1.02
201 | CTATATTCGA | 1.03
